target: WDR5 (Homo sapiens, UniProt P61964); test: biochemical; assay type: binding; conditions: WDR5-His tag (Δ23, residues 24-334) 2 nM; 10mer-Thr-FAM probe 150 nM; Tb-anti-HIS 1 nM; 60 min, room temperature; read-out: Ki for Inhibition of WDR5 by TR-FRET assay

Row | Ki [nM] | SMILES
1 | < 0.05 | CCc1ccnc(CN2CCc3c(cc(Cn4ccnc4CC)cc3-c3cn(CC)nc3C(F)(F)F)C2=O)c1 [Example 149, 7-((2-Ethyl-1H-imidazol-1-yl)methyl)-5-(1-ethyl-3-(trifluoromethyl)-1H-pyrazol-4-yl)-2-((4-ethylpyridin-2-yl)methyl)-3,4-dihydroisoquinolin-1(2H)-one]
2 | < 0.05 | Cc1ccnc([C@H](C2CC2)N2CCc3c(cc(Cn4ccn(C)c4=N)cc3-c3cccnc3C(F)(F)F)C2=O)c1 [Example 36, (S)-2-(Cyclopropyl(4-methylpyridin-2-yl)methyl)-7-((2-imino-3-methyl-2,3-dihydro-1H-imidazol-1-yl)methyl)-5-(2-(trifluoromethyl)pyridin-3-yl)-3,4-dihydroisoquinolin-1(2H)-one]
3 | < 0.05 | Cc1nccn1Cc1cc2c(c(-c3cn(C)nc3C(F)(F)F)c1)CCN(Cc1cc(Br)cc3[nH]ccc13)C2=O [Example 236, 2-((6-Bromo-1H-indol-4-yl)methyl)-7-((2-methyl-1H-imidazol-1-yl)methyl)-5-(1-methyl-3-(trifluoromethyl)-1H-pyrazol-4-yl)-3,4-dihydroisoquinolin-1(2H)-one]
4 | < 0.05 | COc1ccnc(CN2CCc3c(cc(Cn4ccn(C5CC5)c4=N)cc3-c3cn(C)nc3C(F)(F)F)C2=O)c1 [Example 45, 7-((3-Cyclopropyl-2-imino-2,3-dihydro-1H-imidazol-1-yl)methyl)-2-((4-methoxypyridin-2-yl)methyl)-5-(1-methyl-3-(trifluoromethyl)-1H-pyrazol-4-yl)-3,4-dihydroisoquinolin-1(2H)-one]
5 | < 0.05 | COc1ccnc(CN2CCc3c(cc(CN4CCN(C)C4=N)cc3-c3cn(C)nc3C(F)(F)F)C2=O)c1 [Example 43, 7-((2-Imino-3-methylimidazolidin-1-yl)methyl)-2-((4-methoxypyridin-2-yl)methyl)-5-(1-methyl-3-(trifluoromethyl)-1H-pyrazol-4-yl)-3,4-dihydroisoquinolin-1(2H)-one]
6 | < 0.05 | CCn1cc(-c2cc(Cn3ccnc3)cc3c2CCN([C@@H](C)c2cc(OC)ccn2)C3=O)c(C(F)(F)F)n1 [Example 160, (S)-7-((1H-Imidazol-1-yl)methyl)-5-(1-ethyl-3-(trifluoromethyl)-1H-pyrazol-4-yl)-2-(1-(4-methoxypyridin-2-yl)ethyl)-3,4-dihydroisoquinolin-1(2H)-one]
7 | 0.29 | CCn1cc(-c2cc(Cn3ccnc3C3CC3)cc3c2CCN(Cc2cc(C)nn2C)C3=O)c(C(F)(F)F)n1 [Example 14, 7-((2-Cyclopropyl-1H-imidazol-1-yl)methyl)-2-((1,3-dimethyl-1H-pyrazol-5-yl)methyl)-5-(1-ethyl-3-(trifluoromethyl)-1H-pyrazol-4-yl)-3,4-dihydroisoquinolin-1(2H)-one]
8 | < 0.05 | COc1ccnc([C@H](C)N2CCc3c(cc(Cn4ccnc4C)cc3-c3ccncc3C)C2=O)c1 [Example 224, (S)-2-(1-(4-Methoxypyridin-2-yl)ethyl)-7-((2-methyl-1H-imidazol-1-yl)methyl)-5-(3-methylpyridin-4-yl)-3,4-dihydroisoquinolin-1(2H)-one]
9 | 0.05 | CCn1cc(-c2cc(Cn3cc4n(c3=N)CCC4)cc3c2CCN(Cc2cc(OC)ccn2)C3=O)c(C(F)(F)F)n1 [Example 56, 5-(1-Ethyl-3-(trifluoromethyl)-1H-pyrazol-4-yl)-7-((3-imino-6,7-dihydro-3H-pyrrolo[1,2-c]imidazol-2(5H)-yl)methyl)-2-((4-methoxypyridin-2-yl)methyl)-3,4-dihydroisoquinolin-1(2H)-one]
10 | < 0.05 | CCn1cc(CN2CCc3c(cc(Cn4ccnc4C)cc3-c3cn(CC)nc3C(F)(F)F)C2=O)nn1 [Example 15, 2-((1-Ethyl-1H-1,2,3-triazol-4-yl)methyl)-5-(1-ethyl-3-(trifluoromethyl)-1H-pyrazol-4-yl)-7-((2-methyl-1H-imidazol-1-yl)methyl)-3,4-dihydroisoquinolin-1(2H)-one]
11 | < 0.05 | Cc1ccnc(CN2CCc3c(cc(Cn4ccoc4=N)cc3-c3cn(C)nc3C(F)(F)F)C2=O)c1 [Example 88, 7-((2-Iminooxazol-3(2H)-yl)methyl)-5-(1-methyl-3-(trifluoromethyl)-1H-pyrazol-4-yl)-2-((4-methylpyridin-2-yl)methyl)-3,4-dihydroisoquinolin-1(2H)-one]
12 | 0.33 | COc1ccnc(CN2CCc3c(cc(Cn4cnsc4=N)cc3-c3cn(C)nc3C(F)(F)F)C2=O)c1 [Example 130, 7-((5-Imino-1,2,4-thiadiazol-4(5H)-yl)methyl)-2-((4-methoxypyridin-2-yl)methyl)-5-(1-methyl-3-(trifluoromethyl)-1H-pyrazol-4-yl)-3,4-dihydroisoquinolin-1(2H)-one]
13 | 2.5 | CCn1cc(-c2cc(Cn3ccnc3C(C)C)cc3c2CCN([C@@H](C)c2cc(OC)ccn2)C3=O)c(C(F)(F)F)n1 [Example 162, (S)-5-(1-Ethyl-3-(trifluoromethyl)-1H-pyrazol-4-yl)-7-((2-isopropyl-1H-imidazol-1-yl)methyl)-2-(1-(4-methoxypyridin-2-yl)ethyl)-3,4-dihydroisoquinolin-1(2H)-one]
14 | < 0.05 | Cc1cc2c(c(CN3CCc4c(cc(Cn5ccnc5C)cc4-c4cn(C)nc4C(F)(F)F)C3=O)c1)OCC2 [Example 218, 7-((2-Methyl-1H-imidazol-1-yl)methyl)-2-((5-methyl-2,3-dihydrobenzofuran-7-yl)methyl)-5-(1-methyl-3-(trifluoromethyl)-1H-pyrazol-4-yl)-3,4-dihydroisoquinolin-1(2H)-one]

More lines, now with the values behind:

Row | SMILES | Ki [nM]
15 | COc1ccnc(CN2Cc3c(cc(Cn4ccn(C)c4=N)cc3-c3ccc(F)cc3C)C2=O)c1 [Example 138, 4-(4-Fluoro-2-methylphenyl)-6-((2-imino-3-methyl-2,3-dihydro-1H-imidazol-1-yl)methyl)-2-((4-methoxypyridin-2-yl)methyl)isoindolin-1-one] | 0.62
16 | COc1ccnc(CN2Cc3c(cc(Cn4ccn(C)c4=N)cc3C3CC3)C2=O)c1 [Example 136, 4-Cyclopropyl-6-((2-imino-3-methyl-2,3-dihydro-1H-imidazol-1-yl)methyl)-2-((4-methoxypyridin-2-yl)methyl)isoindolin-1-one] | 12
17 | CCn1cc(-c2cc(CN3CCOC3=N)cc3c2CCN(Cc2cc(C)nn2C)C3=O)c(C(F)(F)F)n1 [Example 95, 2-((1,3-Dimethyl-1H-pyrazol-5-yl)methyl)-5-(1-ethyl-3-(trifluoromethyl)-1H-pyrazol-4-yl)-7-((2-iminooxazolidin-3-yl)methyl)-3,4-dihydroisoquinolin-1(2H)-one] | < 0.05
18 | Cc1nccn1Cc1cc2c(c(-c3cn(C)nc3C(F)(F)F)c1)CCN(Cc1cccc(-c3ccsc3)c1)C2=O [Example 231, 7-((2-Methyl-1H-imidazol-1-yl)methyl)-5-(1-methyl-3-(trifluoromethyl)-1H-pyrazol-4-yl)-2-(3-(thiophen-3-yl)benzyl)-3,4-dihydroisoquinolin-1(2H)-one] | 0.052
19 | COc1cc(CN2CCCc3c(cc(Cn4ccnc4C)cc3-c3ccc(F)cc3C)C2=O)cc(OC)c1 [Example 141, 2-(3,5-dimethoxybenzyl)-6-(4-fluoro-2-methylphenyl)-8-((2-methyl-1H-imidazol-1-yl)methyl)-2,3,4,5-tetrahydro-1H-benzo[c]azepin-1-one] | 0.17
20 | Cc1nccn1Cc1cc2c(c(-c3cn(C)nc3C(F)(F)F)c1)CCN(c1ccccc1OC(F)(F)F)C2=O [Example 255, 7-((2-Methyl-1H-imidazol-1-yl)methyl)-5-(1-methyl-3-(trifluoromethyl)-1H-pyrazol-4-yl)-2-(2-(trifluoromethoxy)phenyl)-3,4-dihydroisoquinolin-1(2H)-one] | 0.58
21 | COc1cc(CN2CCc3c(cc(Cn4ccoc4=N)cc3-c3ccc(F)cc3C)C2=O)cc(OC)c1 [Example 81, 2-(3,5-Dimethoxybenzyl)-5-(4-fluoro-2-methylphenyl)-7-((2-iminooxazol-3(2H)-yl)methyl)-3,4-dihydroisoquinolin-1(2H)-one] | < 0.05
22 | COc1cc(CN2CCc3c(cc(Cn4cnnc4C)cc3-c3ccc(F)cc3C)C2=O)cc(OC)c1 [Example 145, 2-(3,5-Dimethoxybenzyl)-5-(4-fluoro-2-methylphenyl)-7-((3-methyl-4H-1,2,4-triazol-4-yl)methyl)-3,4-dihydroisoquinolin-1(2H)-one] | 7.9
23 | Cc1ccnc([C@H](C2CC2)N2CCc3c(cc(Cn4ccn(C)c4=N)cc3-c3ccc(F)cc3C)C2=O)c1 [Example 37, (S)-2-(Cyclopropyl(4-methylpyridin-2-yl)methyl)-5-(4-fluoro-2-methylphenyl)-7-((2-imino-3-methyl-2,3-dihydro-1H-imidazol-1-yl)methyl)-3,4-dihydroisoquinolin-1(2H)-one] | < 0.05
24 | COc1ccnc(CN2CCc3c(cc(Cn4ccoc4=N)cc3-c3cn(C)nc3C)C2=O)c1 [Example 85, 5-(1,3-Dimethyl-1H-pyrazol-4-yl)-7-((2-iminooxazol-3(2H)-yl)methyl)-2-((4-methoxypyridin-2-yl)methyl)-3,4-dihydroisoquinolin-1(2H)-one] | 0.065
25 | COc1cc(CN2CCc3c(cc(Cn4ccccc4=N)cc3-c3ccc(F)cc3C)C2=O)cc(OC)c1 [Example 116, 2-(3,5-Dimethoxybenzyl)-5-(4-fluoro-2-methylphenyl)-7-((2-iminopyridin-1(2H)-yl)methyl)-3,4-dihydroisoquinolin-1(2H)-one] | 0.25
26 | Cc1cc(CN2CCc3c(cc(Cn4ccn(C)c4=N)cc3-c3ccc(F)cc3C)C2=O)ccc1F [Example 31, 5-(4-Fluoro-2-methylphenyl)-2-(4-fluoro-3-methylbenzyl)-7-((2-imino-3-methyl-2,3-dihydro-1H-imidazol-1-yl)methyl)-3,4-dihydroisoquinolin-1(2H)-one] | < 0.05
27 | Cc1cc(CN2CCc3c(cc(Cn4ccnc4C)cc3-c3ccccc3)C2=O)ccc1Cl [Example 5, 2-(4-Chloro-3-methylbenzyl)-7-((2-methyl-1H-imidazol-1-yl)methyl)-5-phenyl-3,4-dihydroisoquinolin-1(2H)-one] | 5.9
